From PMC10313818 come the findings set out here.

Some entries of the source have several records that differ or are many. This is not the full list of results. There may be further records. Some entries list several cross-links; each record is another pair of residues.

The test addresses GARS1 (UniProt P41250). Nature of the test: cross-linking mass spectrometry. The note with it: not determined.
Sequence of UniProt P41250 (P41250 whole entry): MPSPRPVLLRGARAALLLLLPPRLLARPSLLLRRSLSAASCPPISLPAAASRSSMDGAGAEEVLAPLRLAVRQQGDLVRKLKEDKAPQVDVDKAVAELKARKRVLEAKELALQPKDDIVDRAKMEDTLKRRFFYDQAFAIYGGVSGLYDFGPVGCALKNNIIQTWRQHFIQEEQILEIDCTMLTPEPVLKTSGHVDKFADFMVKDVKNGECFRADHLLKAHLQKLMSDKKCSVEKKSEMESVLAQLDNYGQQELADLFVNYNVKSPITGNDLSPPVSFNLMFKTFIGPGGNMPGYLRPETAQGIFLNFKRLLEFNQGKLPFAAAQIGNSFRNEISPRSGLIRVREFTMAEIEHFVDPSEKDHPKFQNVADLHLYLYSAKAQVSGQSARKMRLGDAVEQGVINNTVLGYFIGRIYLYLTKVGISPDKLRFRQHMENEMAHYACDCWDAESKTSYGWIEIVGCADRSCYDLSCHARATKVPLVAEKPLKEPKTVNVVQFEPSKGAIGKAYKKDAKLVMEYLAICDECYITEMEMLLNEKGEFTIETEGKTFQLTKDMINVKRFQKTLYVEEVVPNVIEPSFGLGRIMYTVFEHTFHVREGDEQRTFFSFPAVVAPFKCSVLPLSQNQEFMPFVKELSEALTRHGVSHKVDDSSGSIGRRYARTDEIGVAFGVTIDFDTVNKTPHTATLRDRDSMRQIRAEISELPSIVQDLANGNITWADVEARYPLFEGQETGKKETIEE

Sequence of ATP5F1C (P36542 whole entry): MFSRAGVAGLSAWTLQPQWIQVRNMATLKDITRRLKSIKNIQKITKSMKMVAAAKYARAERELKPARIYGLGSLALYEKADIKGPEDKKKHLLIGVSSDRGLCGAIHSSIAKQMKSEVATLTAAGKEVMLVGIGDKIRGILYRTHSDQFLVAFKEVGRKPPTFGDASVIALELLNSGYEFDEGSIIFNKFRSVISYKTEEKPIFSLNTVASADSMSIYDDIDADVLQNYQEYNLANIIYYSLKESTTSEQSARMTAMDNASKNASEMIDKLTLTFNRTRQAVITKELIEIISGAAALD

As for ATP5F1C, P36542, the cross-linked residues entry is “K49 - K484 and K49 - K487”.
